# Test results: the supplement of paper PMC8728848
# The list shows a part of the results.
# B1: Pbx2 (Cryptococcus neoformans) (protein)
# chain: AVSPLPSSTELVFYSQKRRRRRICSTATGSLSTPDPTRMTSDPYKRVGMRFSSVPRLLITFLSLLLLVSAAPPCVRFADYDSINQMFIDGGPGTKVLLCPNRLYRLSGPIIFTAADQEIATYGYPTGSERAVLRVEGRNTATAIQGDCRRCARVSVKNLVVDGNRKKLGRMRDFQLATGLVVLGGNEGQSIQNSWIKNPRGFTAIHIREGDKLQCSGARVEKNEIGPVGEEYDPEKDGDDPEMSPLGRPLADGVSIACRDSFIRDNTFRDNTDAAIVVYCSPGTLIHANHIFAQSLSAMAGILMVDSTPFNGDYTGTVVRSNIIDAVSRTIRVGIGIGPTVWSDDTETILTGGSVIGNGLKGRYMGYGIAAAGLKQWTIKDNWDEAKHEGRKSARCFDEPVNPDPIGLLYNRPTMEDCTVQSGFADHDFQYLVCIDGLYDKTNPPKHDPAPLAHDPSPTNAQEDNTVQQDGGDSKSKSIEQPREASDIEAEPSVEKMFSTGSEMMDDVLEHSHQRMHEVIDHLSRRIDILGAASAGKGSGDSKISEVLDPAMSSHLEKLQRKIEHLEFSLRSQIETAIQLRSAIQGWDQEMALVTDWEYDILLDVRHKLELSSYPHDQPLDPRLMRGQSYLNNEAVLVDDHSHPSLEGENLRAMSDRARLNANEEA
# Experiments:
# Assay in all cases: glycan array binding signal (z-score within array); higher = stronger binding
# Settings in all cases: glycan notation: IUPAC condensed, linker removed
# [1] = biological target: Fuc(a1-2)[Gal(a1-3)]Gal(b1-4)GlcNAc(b1-2)Man(a1-3)[Fuc(a1-2)[Gal(a1-3)]Gal(b1-4)GlcNAc(b1-2)Man(a1-6)]Man(b1-4)GlcNAc(b1-4)[Fuc(a1-6)]GlcNAc
# Summary of the method: (§1)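 The binding signal is a Z-score computed within each array and averaged over linkers. Arrays of the same protein sequence at different concentrations or buffers were also averaged together. Data originate from 3228 arrays in the Consortium for Functional Glycomics database, kept only where the protein sequence was available.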
# [2] = biological target: Fuc(a1-2)[Gal(a1-3)]Gal(b1-4)GlcNAc(b1-3)GalNAc
# Summary of the method: as §1
# [3] = biological target: Fuc(a1-2)[Gal(a1-3)]Gal(b1-4)GlcNAc(b1-6)GalNAc
# Summary of the method: as §1
# [4] = biological target: Fuc(a1-2)[Gal(a1-3)]Gal(b1-4)[Fuc(a1-3)]Glc
# Summary of the method: as §1
# [5] = biological target: Fuc(a1-2)[Gal(a1-3)]Gal(b1-4)[Fuc(a1-3)]GlcNAc
# Summary of the method: as §1
# [6] = biological target: Fuc(a1-2)[Gal(a1-3)]Gal(b1-4)[Fuc(a1-3)]GlcNAc(b1-3)GalNAc
# Summary of the method: as §1
# [7] = biological target: Fuc(a1-2)[Gal(a1-4)]Gal(b1-4)GlcNAc
# Summary of the method: as §1
# [8] = biological target: Fuc(a1-2)[GalNAc(a1-3)]Gal
# Summary of the method: as §1
# [9] = biological target: Fuc(a1-2)[GalNAc(a1-3)]Gal(b1-3)GalNAc(a1-3)[Fuc(a1-2)]Gal(b1-4)GlcNAc
# Summary of the method: as §1
# [10] = biological target: Fuc(a1-2)[GalNAc(a1-3)]Gal(b1-3)GalNAc(b1-3)Gal(a1-4)Gal(b1-4)Glc
# Summary of the method: as §1
# [11] = biological target: Fuc(a1-2)[GalNAc(a1-3)]Gal(b1-3)GlcNAc
# Summary of the method: as §1
# [12] = biological target: Fuc(a1-2)[GalNAc(a1-3)]Gal(b1-3)GlcNAc(b1-2)Man(a1-3)[Fuc(a1-2)[GalNAc(a1-3)]Gal(b1-3)GlcNAc(b1-2)Man(a1-6)]Man(b1-4)GlcNAc(b1-4)GlcNAc
# Summary of the method: as §1
# [13] = biological target: Fuc(a1-2)[GalNAc(a1-3)]Gal(b1-3)GlcNAc(b1-2)Man(a1-3)[Fuc(a1-2)[GalNAc(a1-3)]Gal(b1-3)GlcNAc(b1-2)Man(a1-6)]Man(b1-4)GlcNAc(b1-4)[Fuc(a1-6)]GlcNAc
# Summary of the method: as §1
# [14] = biological target: Fuc(a1-2)[GalNAc(a1-3)]Gal(b1-3)GlcNAc(b1-3)GalNAc
# Summary of the method: as §1
# [15] = biological target: Fuc(a1-2)[GalNAc(a1-3)]Gal(b1-3)GlcNAc(b1-6)GalNAc
# Summary of the method: as §1
# [16] = biological target: Fuc(a1-2)[GalNAc(a1-3)]Gal(b1-4)Glc
# Summary of the method: as §1
# [17] = biological target: Fuc(a1-2)[GalNAc(a1-3)]Gal(b1-4)GlcNAc
# Summary of the method: as §1
# [18] = biological target: Fuc(a1-2)[GalNAc(a1-3)]Gal(b1-4)GlcNAc(b1-2)Man
# Summary of the method: as §1
# [19] = biological target: Fuc(a1-2)[GalNAc(a1-3)]Gal(b1-4)GlcNAc(b1-2)Man(a1-3)[Fuc(a1-2)[GalNAc(a1-3)]Gal(b1-4)GlcNAc(b1-2)Man(a1-6)]Man(b1-4)GlcNAc(b1-4)GlcNAc
# Summary of the method: as §1
# [20] = biological target: Fuc(a1-2)[GalNAc(a1-3)]Gal(b1-4)GlcNAc(b1-2)Man(a1-3)[Fuc(a1-2)[GalNAc(a1-3)]Gal(b1-4)GlcNAc(b1-2)Man(a1-6)]Man(b1-4)GlcNAc(b1-4)[Fuc(a1-6)]GlcNAc
# Summary of the method: as §1
# [21] = biological target: Fuc(a1-2)[GalNAc(a1-3)]Gal(b1-4)GlcNAc(b1-3)Gal(b1-4)GlcNAc
# Summary of the method: as §1
# [22] = biological target: Fuc(a1-2)[GalNAc(a1-3)]Gal(b1-4)GlcNAc(b1-3)Gal(b1-4)GlcNAc(b1-3)Gal(b1-4)GlcNAc
# Summary of the method: as §1
# [23] = biological target: Fuc(a1-2)[GalNAc(a1-3)]Gal(b1-4)GlcNAc(b1-3)GalNAc
# Summary of the method: as §1
# [24] = biological target: Fuc(a1-2)[GalNAc(a1-3)]Gal(b1-4)GlcNAc(b1-3)[Fuc(a1-2)[GalNAc(a1-3)]Gal(b1-4)GlcNAc(b1-6)]GalNAc
# Summary of the method: as §1
# [25] = biological target: Fuc(a1-2)[GalNAc(a1-3)]Gal(b1-4)GlcNAc(b1-6)GalNAc
# Summary of the method: as §1
# [26] = biological target: Fuc(a1-2)[GalNAc(a1-3)]Gal(b1-4)[Fuc(a1-3)]GlcNAc
# Summary of the method: as §1
# [27] = biological target: Fuc(a1-2)[GalNAc(a1-3)]Gal(b1-4)[Fuc(a1-3)]GlcNAc(b1-3)GalNAc
# Summary of the method: as §1
# [28] = biological target: Fuc(a1-2)[GalNAc(a1-4)]Gal(b1-4)GlcNAc
# Summary of the method: as §1
# [29] = biological target: Fuc(a1-2)[GalNAc(b1-3)]Gal
# Summary of the method: as §1
# Fuc(a1-3)GlcNAc = biological target: Fuc(a1-3)GlcNAc
# Summary of the method: as §1
binder,measurement,setting,value
B1,glycan array binding signal (z-score),[1],-0.238
same,glycan array binding signal (z-score),[2],-0.069
same,glycan array binding signal (z-score),[3],2.16
same,glycan array binding signal (z-score),[4],-0.407
same,glycan array binding signal (z-score),[5],0.058
same,glycan array binding signal (z-score),[6],0.188
same,glycan array binding signal (z-score),[7],-0.485
same,glycan array binding signal (z-score),[8],-0.546
same,glycan array binding signal (z-score),[9],-0.109
same,glycan array binding signal (z-score),[10],-0.535
same,glycan array binding signal (z-score),[11],-0.234
same,glycan array binding signal (z-score),[12],-0.425
same,glycan array binding signal (z-score),[13],-0.165
same,glycan array binding signal (z-score),[14],0.119
same,glycan array binding signal (z-score),[15],-0.128
same,glycan array binding signal (z-score),[16],-0.284
same,glycan array binding signal (z-score),[17],-0.579
same,glycan array binding signal (z-score),[18],0.142
same,glycan array binding signal (z-score),[19],-0.173
same,glycan array binding signal (z-score),[20],-0.127
same,glycan array binding signal (z-score),[21],-0.29
same,glycan array binding signal (z-score),[22],-0.335
same,glycan array binding signal (z-score),[23],-0.072
same,glycan array binding signal (z-score),[24],0.161
same,glycan array binding signal (z-score),[25],-0.24
same,glycan array binding signal (z-score),[26],-0.22
same,glycan array binding signal (z-score),[27],2.01
same,glycan array binding signal (z-score),[28],-0.377
same,glycan array binding signal (z-score),[29],-0.326
same,glycan array binding signal (z-score),Fuc(a1-3)GlcNAc,-0.427
